Reference: ChEMBL document CHEMBL4888484, “Replenishing the malaria drug discovery pipeline: Screening and hit evaluation of the MMV Hit Generation Library 1 (HGL1) against asexual blood stage Plasmodium falciparum ,using a nano luciferase reporter read-out” (2022)
In all, about 150,000 compounds went through this assay and about 540 (0.36%) showed an effect of 50% or more. The list shows a part of the results.

Test system: Plasmodium falciparum
Test: Primary screen in NF54 nanoGlo assay, in single point, at 2uM, 72h; a lower Z score goes with more inhibition
Format: functional, Erythrocyte
Settings: timepoint 72 hour

Row | SMILES | % Inhibition | Z score
1 | Cc1cccc(C2(c3noc(C(C)(C)C(N)=O)n3)CC2)c1 | -4% | 0.64
2 | O=C(NCCC1=CCCCC1)c1cc(N2CCc3ccccc3C2)nc2ccccc12 | -16% | 1.51
3 | CCC[N+](C)(CCC)Cc1cc2ccccc2c2c1COC2 | -4% | 0.71
4 | COc1ccc(Cl)cc1C(=O)N1CCOc2ccc(CO)cc2C1 | -15% | 1.88
5 | O=C1CCCC(=O)N1CCS(=O)(=O)Nc1ccc(Cl)c(N2CCCS2(=O)=O)c1 | -15% | 2.19
6 | Cc1nn(Cc2nnc(-c3ccccc3)o2)c(=O)c(C#N)c1C | -10% | 1.35
7 | CCOC(CS(=O)(=O)N1CCC2C(CCC(=O)N2C2CC2)C1)C1CC1 (stereo unspecified) | 9% | -1.17
8 | Cc1cc(-n2nc(-c3ccccc3)nc2CC[C@@H]2NC(=O)NC2=O)ccn1 | -6% | 0.84
9 | CCCC(=O)[C@H](C#N)c1nc2cc(Cl)ccc2c(=O)[nH]1 | -10% | 1.81
10 | Cc1noc2nc(-c3cnn(C)c3)cc(C(=O)N3CCCC[C@H]3c3ccccc3)c12 | -23% | 4.56
11 | O=C(Cc1ccc(NC(=O)c2ccc(Br)cc2)cc1)Nc1nncs1 | -4% | 0.57
12 | Cc1cc(C)c2cc(CN3CCCN(CC(F)F)CC3)[nH]c2c1 | -27% | 3.21
13 | O=C(Nc1ccc2c(c1)OCO2)C1CC2CCC1C2 (stereo unspecified) | -12% | 2.22
14 | COc1ccc(Cl)cc1NC(=O)N1CCC[C@H](Oc2nc(C)cc(C)n2)C1 | 5% | -0.71
15 | CCCCN[C@H]1CS(=O)(=O)C[C@@H]1S(=O)(=O)c1ccccc1 | 2% | -0.2
16 | N#Cc1ccc(N2C[C@@H]3OCC(=O)N(Cc4ccccc4)[C@@H]3C2)nc1 | 15% | -1.74
17 | CN1CCOC(C(NCc2cscn2)c2ccc(Cl)cc2)C1 (stereo unspecified) | -4% | 0.66
18 | O=C1C[C@H](c2ccc3c(c2)OCO3)c2c(-c3ccccc3)n[nH]c2O1 | -4% | 0.53
